Out of some 43,000 compounds screened, about 200 (0.47%) were called active. Another 12% or so got no clear call; they are omitted. Calls come from the whole dose curve; as a rule, active = well fitted cell-killing curve with a large enough effect; inconclusive = small, poorly fitted or top-dose-only effect, or effect the other way; inactive = flat fitted curve, though single readings scatter. The list shows a part of the results.
Assay: Cell viability qHTS assay in S16 Pmp22-F2sN cells; note: nearly all actives have a fitted effect of over 65% in size
Settings: S16 Pmp22-F2sN Schwann cells (luciferase reporters placed in the Pmp22 gene) viability, CellTiter-Glo, 24 h; series mostly up to 57.5 µM; activity change, negative = cytotoxicity: at the top concentration
How it was run: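 Rat S16 Schwann reporter line, 24 h treatment with library compounds delivered at 23 nL per well. Cell viability by CellTiter-Glo luminescence.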
% is set by controls: 0 for no effect and ±100 for the full control effect.

Compound	activity change, negative = cytotoxicity
Cc1cccc(NC(=O)CN(c2ccc(C(C)C)cc2)S(=O)(=O)c2c(C)nn(C)c2C)c1C	inactive: -8.49%
CCOC(=O)C1CCN(S(=O)(=O)c2cc(-c3onc(C)c3C)ccc2C)CC1	inactive: -8.82%
Cc1ccc(-n2ncc3c(N4CCN(c5ccccc5)CC4)ncnc32)cc1C	inactive: -3.83%
COC(=O)c1c(NC(=O)c2cc(=O)c3c(C)cc(C)cc3o2)sc2c1CCCC2	inactive: 5.69%
COc1ccc(N2C(=O)CSC23C(=O)N(C)c2ccccc23)cc1Cl (stereo not drawn)	inactive: -1.53%
CCc1ccccc1Nc1cc(C(=O)NCc2ccc(C)cc2)c2ccccc2n1	inactive: -18.8%
CCOC(=O)N1CCN(C(=O)c2ccc3c(c2)N(Cc2ccccc2F)C(=O)c2ccccc2S3=O)CC1 (stereo not drawn)	inactive: 0.476%
O=C(c1c2c(nc3ccccc13)C(=O)N(C1CCCCC1)C2)N1CCN(c2ccc(F)cc2)CC1	inactive: 4.1%
CC(=O)N1CCCc2cc(S(=O)(=O)N3CCC(C(=O)N(Cc4ccccc4)C(C)C)CC3)ccc21	inactive: -22.6%
COCCn1c(C)cc(O)c(C(c2ccccc2)N2CCC(C)CC2)c1=O (stereo not drawn)	inactive: -7.08%
Cc1cc(C)c2c(n1)nn1c(C)c(CCC(=O)Nc3cccc(C)c3C)c(C)nc21	inactive: -3.97%
Cc1ccc(Cl)cc1N1CCN(C(=O)C2CCN(S(=O)(=O)c3cn(C)cn3)CC2)CC1	inactive: -3.49%
Cc1cccc(N2CCN(CCCNC(=O)Cn3ncc4c([nH]c5ccccc54)c3=O)CC2C)c1 (stereo not drawn)	inactive: 2.77%
CCc1ccc(S(=O)(=O)Nc2ccc3c(c2)sc(=O)n3C)cc1	inactive: -1.67%
Cc1ccc(Cl)cc1NC(=O)CN1C=NS(=O)(=O)c2ccccc21	inactive: -1.58%
Cc1cccc(Cn2c(=O)n(-c3cc(C)cc(C)c3)c(=O)c3oc4ccccc4c32)c1	inactive: 10.4%
CCc1nn(CCCC(=O)NCc2ccccc2OC)c(=O)c2cc3occc3n12	inactive: 6.68%
O=C(NCCS(=O)(=O)N1CCN(c2cccc(Cl)c2)CC1)C(c1ccccc1)c1ccccc1	inactive: 2.9%
CCOCCCn1c(=N)c(C(=O)NC2CCCCC2)cc2c(=O)n3ccccc3nc21	inactive: 8.09%
COc1ccc(N(C)C(=O)Cn2cnc3sc(C)c(S(=O)(=O)N4CCN(c5ncccn5)CC4)c3c2=O)cc1	inactive: 15.8%
Cc1ccc(-c2nc3cccc(C)n3c2Nc2ccc3c(c2)OCCO3)cc1	inactive: -20%
COc1ccc(-c2c3c(nc4sc(C(=O)Nc5cccc(OC)c5)c(N)c24)CC(C)(C)CC3=O)cc1	inactive: 0.565%
CCc1ccccc1NC(=O)Cn1c(=O)n(CCc2ccccc2)c(=O)c2sc3ccccc3c21	inactive: -9.73%
O=C(CSc1nc2ccccc2nc1Cc1ccccc1)N1CCc2ccccc21	inactive: 3.59%

Compound	activity change, negative = cytotoxicity
Cc1cccc(-c2nc3c4ccccc4nc(N4CCN(c5cccc(Cl)c5)CC4)n3n2)c1	inactive: 11.3%
CCC(C)NC(=O)c1ccc(CNS(=O)(=O)c2ccc3c(c2)C(C)(C)C(=O)N3C)cc1 (stereo not drawn)	inactive: 2.02%
Cc1cc(C)c2oc(-c3cccc(NC(=O)c4cccc(F)c4)c3C)nc2c1	inactive: 13.4%
COc1ccc(CCNC(=O)c2ccc(Cn3c(=O)c4cccn4c4cccnc43)cc2)cc1OC	inactive: 15.2%
Cc1cc(C(=O)N2CCN(c3ccccc3F)CC2)c2c(C)nn(-c3ccccc3)c2n1	inactive: -9.08%
Cc1cc(C)n2nc(CNS(=O)(=O)c3cccc(Cl)c3)nc2n1	inactive: -8.2%
COCCNC(=O)c1c(NC(=O)c2cc(=O)c3cc(C)cc(C)c3o2)sc2c1CCCC2	inactive: 8.27%
COc1ccc(C2CC(=O)c3cc(-c4nc(-c5cccc([N+](=O)[O-])c5)cs4)c(=O)n(-c4cccc(C)c4)c3C2)cc1 (stereo not drawn)	inactive: -1.43%
Cc1ccc(NC(=O)CSc2nc3ccc(NC(=O)c4ccco4)cc3s2)cc1	inactive: 12.6%
COC(=O)c1c(NC(=O)Cc2coc3cc(C)cc(C)c23)sc2c1CCC2	inactive: -3.64%
COc1cc(C(=O)NCc2ccc3c(c2)CCN3C(=O)c2ccc(Cl)cc2)cc(OC)c1OC	inactive: 12.2%
COc1cccc(Cn2c(C)c(CNCc3cccc(C)c3)c(C(=O)O)c2C)c1	inactive: 2.27%
CCc1ccc(NC(=O)c2cnc3c(-c4ccccc4)c(C)nn3c2C)cc1	inactive: 1.41%
CC(=O)c1ccc(NC(=O)c2ccc(-c3nc(CSc4ccc(C)cc4)c(C)o3)cc2)cc1	inactive: -4.01%
O=c1cc(COc2ccccc2Cl)nc2scc(-c3ccccc3)n12	inactive: 26.2%
COc1ccccc1CNC(=O)CCn1c(=O)c2ccccc2n(CC(=O)Nc2cc(Cl)ccc2C)c1=O	inactive: 0.299%
CCOC(=O)c1ccc(N2C(=O)c3[nH]nc(-c4ccc(OC)cc4)c3C2c2cccc(O)c2)cc1 (stereo not drawn)	inactive: -13.2%
CCc1cccc(NC(=O)CSc2ncc3c(n2)-c2cc(Cl)ccc2N(C)S3(=O)=O)c1	inactive: -3.25%
COc1ccc(NC(=O)CCS(=O)(=O)c2nc(-c3ccc4c(c3)OCO4)cc(C(F)(F)F)n2)cc1OC	inactive: -17.1%
CCC(C)NC(=O)CCSc1nc(-c2ccc3c(c2)OCO3)cc(C(F)(F)F)n1 (stereo not drawn)	inactive: -0.177%
Cc1ccc(C2NC(=O)c3n[nH]c(-c4cccs4)c32)cc1 (stereo not drawn)	inactive: -5.85%
Cc1ccc(Cl)cc1N1CCN(C(=O)Cn2nc(C)c3sc4ccccc4c3c2=O)CC1	inactive: 4.21%
COc1ccc(-n2nc(C(=O)NCCc3ccc(OC)c(OC)c3)c3c4ccccc4n(C)c3c2=O)cc1	inactive: -21.8%
Cc1ccccc1-c1nc(CS(=O)(=O)CC(=O)NCCCc2ccccc2)c(C)o1	inactive: 10.6%

Compound	activity change, negative = cytotoxicity
CCC(Sc1nnc2c3ccccc3n(CC)c2n1)C(=O)Nc1ccc(NC(C)=O)cc1 (stereo not drawn)	inactive: -16%
CCCOc1cccc(C2c3c(oc4ccc(F)cc4c3=O)C(=O)N2CCc2ccc(OC)cc2)c1 (stereo not drawn)	inactive: 5.79%
COc1cccc(C2C(C(=O)Nc3ccccc3OC)=C(C)Nc3nc(-c4ccco4)nn32)c1 (stereo not drawn)	inactive: -2.44%
O=C(Cn1cnc2onc(-c3ccc(F)cc3)c2c1=O)N1CCN(c2ccc(F)cc2)CC1	inactive: -11.6%
O=C(Cn1nc(Cc2cccnc2)c2ccccc2c1=O)Nc1ccc(F)c(Cl)c1	inactive: -20.2%
COc1ccc(C(=O)NCC(c2ccc(Cl)cc2)N2CCCCC2)cc1 (stereo not drawn)	inactive: 13.3%
COc1ccccc1CNC(=O)Cn1nc(C)n2cccc2c1=O	inactive: 0.0055%
CCC(C(=O)Nc1cc(C(F)(F)F)ccc1Cl)n1nc(C)c2sc3ccccc3c2c1=O (stereo not drawn)	inactive: 9.27%
Cc1ccc(CN2C(=O)SC(Nc3ccc(Cl)cc3)C2=O)cc1 (stereo not drawn)	inactive: 2.64%
CC1CCN(c2nc3ccc(C(=O)NC(C)C)cc3s2)CC1	inactive: -16.2%
Cc1ccc(Cc2c(C)nc3nc(SCC(=O)NCCC(C)C)nn3c2C)cc1	inactive: -5.73%
Cc1nn(C)c(C)c1S(=O)(=O)N(CC(=O)Nc1ccc(F)cc1F)c1ccc(C(C)C)cc1	inactive: -9.44%
COc1ccc(NC(=O)Cn2c(=O)n(-c3ccc(C)cc3)c(=O)c3c2c2cc(C)ccc2n3C)cc1	inactive: 1.25%
O=C(CN1C(=O)CCn2nc(-c3ccccc3)cc21)NCc1ccccc1	inactive: -0.129%
COc1cccc(CNC(=O)C(=O)NCC(c2ccco2)S(=O)(=O)c2ccccc2)c1 (stereo not drawn)	inactive: -10.1%
CCCCNC(=O)CSc1nc2cc3c(cc2c(=O)n1Cc1ccc(C(=O)NCCc2ccc(OC)c(OC)c2)cc1)OCO3	inactive: -3.39%
Cn1c(=O)c(=O)n(C)c2cc(NS(=O)(=O)c3ccc(Br)cc3)c(Cl)cc21	inactive: -0.0041%
CCc1ccc(-n2nc(CO)c(C(=O)NCc3ccccc3Cl)n2)cc1	inactive: 1.15%
COc1ccc(NC(=O)N2CCCn3nc(C)cc32)cc1OC	inactive: 2.18%
CC(Oc1ccccc1)C(=O)Nc1ccc(C(=O)OCc2cc(=O)n3nc(C4CC4)sc3n2)cc1 (stereo not drawn)	inactive: -6.83%
O=C(CCC(=O)N1Cc2ccccc2Oc2ncccc21)NCc1cccc(Cl)c1	inactive: 2.51%
COc1ccc(Cc2nc3ccccc3n2Cc2ccccc2C)cc1	inactive: -25.8%
Cc1cc2[nH]c(=O)c(=O)[nH]c2cc1S(=O)(=O)N1CCN(c2ccccc2)CC1	inactive: 3.8%
COc1ccc(-c2cc3ccc(O)c(CN4CCCC(C)C4)c3oc2=O)cc1OC (stereo not drawn)	inactive: -1.95%

Compound	activity change, negative = cytotoxicity
O=C(NCc1cccc(Cl)c1)c1ccc(NC(=O)N2CCSc3ccccc32)cc1	inactive: 1.15%
CCn1c(C(=O)NCc2ccccc2Cl)cc2sc(Cl)cc21	inactive: -5.16%
COc1ccc(-c2cn3c(n2)sc2cc(C(=O)Nc4ccc(C)c(Cl)c4)ccc23)cc1	inactive: 5.61%
CCOC(=O)c1[nH]c2c(c1Cc1ccccc1C)C(=O)CC(c1ccccc1)C2 (stereo not drawn)	inactive: -28.4%
COC(=O)c1ccc(NC(=O)n2ncc3c(C)cccc32)cc1	inactive: 2.57%
CCOc1ccc(-c2nnc(SCC(=O)Nc3ccc(C)cc3C)o2)cc1	inactive: 8.16%
CC1=C(c2ccc(C(C)C)cc2)S(=O)(=O)N=C1N1CCC(C(=O)Nc2ccc(C)cc2)CC1	inactive: 1.7%
Cn1c(=O)cc(SCC(=O)NCc2ccc(F)cc2)c2cc(Cl)ccc21	inactive: 2.14%
Cc1ccc(S(=O)(=O)N2CCN(Cc3cc(=O)n4nc(-c5ccccc5Cl)sc4n3)CC2)cc1	inactive: 1.42%
Cc1c(C(=O)N2CCCCCC2)c(S(=O)(=O)Nc2cccc(C#N)c2)c(C)n1C	inactive: -13.4%
CC1(C)N=C(SCc2ccc(Cl)cc2)c2ccccc2N1	inactive: -18.2%
O=C(NCCc1ccccc1)C(=O)NCC(c1cccs1)S(=O)(=O)c1cccs1 (stereo not drawn)	inactive: 4.86%
Cc1cc(=O)[nH]c2nnc(SCc3ccccc3F)n12	inactive: -8.1%
O=C(CSc1nc(-c2ccccc2F)nc2cc(=O)[nH]n12)Nc1cccc(C(F)(F)F)c1	inactive: -20.8%
CCOc1ccccc1-c1nc(Cn2c(=O)cc(C)c3c(C)nn(-c4ccccc4)c32)c(C)o1	inactive: 3.51%
Cc1cc(C)cc(NC(=O)C2CCCN2S(=O)(=O)c2ccc3nc(-c4ccccc4)[nH]c3c2)c1 (stereo not drawn)	inactive: -11.7%
Cc1ccc(OCC(=O)Nc2ccc(S(=O)(=O)Nc3cc(C)on3)cc2)c(Br)c1	inactive: -13.8%
COC(=O)c1sc(-c2ccccc2)cc1NC(=O)Nc1ccc(F)cc1	inactive: -8.95%
COc1ccc(C(CC(=O)NCc2ccc(Cl)cc2)N2Cc3ccccc3C2=O)cc1OC (stereo not drawn)	inactive: -6.75%
O=C(NCCn1cc(SCc2ccc(Br)cc2)c2ccccc21)c1cccs1	inactive: 2.42%
COc1ccc(CCNC(=O)C2CCN(Cc3nc(-c4ccc(OC)c(OC)c4)oc3C)CC2)cc1OC	inactive: 18.4%
